Reference: the supplement of paper PMC10600219
Where a name gives a salt, the structure may show the parent alone. Whole data set: some 2,800 compounds, median “cell viability relative to vehicle” near 0.98, cut for the lowest 2% near 0.45. The list shows a part of the results.

Each compound was assayed on NCI-H2228 alectinib-DTP (assay: cell viability relative to vehicle (fraction of vehicle); NCI-H2228 is an ALK-positive lung cancer line and DTP means drug-tolerant persister; higher = less growth inhibition). Conditions: 100 nM; treatment time 6 days.
Procedure, shortened: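 Drug-tolerant persister NCI-H2228 cells, produced by 13 days in 1000 nM of a targeted drug, and their parental counterparts were seeded into 384-well plates and, the following day, given the 3114-agent TargetMol anti-cancer compound library at 100 nM or DMSO vehicle. After 6 days, the CellTiter-Glo 3D Cell Viability Assay was used to read ATP. Each entry reports viability compared with vehicle-treated cells.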

| SMILES | cell viability |
| --- | --- |
| COCCOc1cnc2ccn([C@H](C)c3nnc4c(F)cc(-c5cnn(C)c5)cn34)c(=O)c2c1 | 1.04 |
| COc1ccc2c(C)nc(Nc3nc(C)c(C)c(=O)[nH]3)nc2c1 [Madrasin] | 1.04 |
| Cc1cc(-c2nnc(N)nc2-c2ccc(F)cc2)cc(Cl)n1 | 1.1 |
| CC(C)N(C[C@H]1O[C@@H](n2cnc3c(N)ncnc32)[C@H](O)[C@@H]1O)[C@H]1C[C@@H](CCc2nc3cc(C(C)(C)C)ccc3[nH]2)C1 [Pinometostat] | 1.04 |
| O=S(=O)(c1ccc(Cl)cc1)N1CCN(c2ccnc3cc(Cl)ccc23)CC1 | 0.965 |
| C[N+]1(C)[C@@H]2CC[C@H]1C[C@@H](OC(=O)C(O)c1ccccc1)C2 (stereo not given in full) [Homatropine Methylbromide] | 1.22 |
| COc1ccc(-c2cc(=O)c3c(O)cc(O)c(-c4cc(-c5cc(=O)c6c(O)cc(O)cc6o5)ccc4OC)c3o2)cc1 | 0.974 |
| Cc1c(C)c2c(c(C)c1O)CCC(C)(COc1ccc(CC3SC(=O)NC3=O)cc1)O2 (stereo not given) [Troglitazone] | 0.922 |
| CSc1ccc2c(c1)C(N1CCN(C)CC1)Cc1ccccc1S2 (stereo not given) [Methiothepin mesylate] | 1.14 |
| CC(C)(C)C(=O)Oc1ccc(S(=O)(=O)Nc2ccccc2C(=O)NCC(=O)O)cc1 [Sivelestat] | 1.11 |
| C[C@H]1COc2c(C3(N)CC3)c(F)cc3c(=O)c(C(=O)O)cn1c23 [Pazufloxacin Mesylate] | 0.983 |
| O=C(NCCCn1ccnc1)c1cc(-c2ccco2)on1 | 1.03 |
| C[N+]1(C)[C@@H]2C[C@@H](OC(=O)C(O)(c3cccs3)c3cccs3)C[C@H]1[C@@H]1O[C@@H]12 [Tiotropium bromide] | 1 |
| Clc1ccc(NN=C(c2ccccc2)c2ccccn2)nc1 | 0.74 |
| O=C(/C=C/c1ccc2ccccc2n1)c1ccncc1 | 0.975 |
| COc1cc(O)c2c(c1)oc(=O)c1c3cc(O)c(O)cc3oc21 [Wedelolactone] | 0.924 |
| COC(=O)C[C@H](NC(=O)[C@H](C)NC(=O)[C@@H](NC(=O)OCc1ccccc1)C(C)C)C(=O)CF | 1 |
| CCCCCCCCCCCCCC(=S)NCCCC[C@H](NC(=O)OCc1ccccc1)C(=O)Nc1ccccc1 [Thiomyristoyl] | 1.11 |
| CN(C)CCCN1c2ccccc2Sc2ccccc21 [Promazine hydrochloride] | 1.06 |
| COc1cc2cc(Oc3ccc4ccc(=O)oc4c3)c(=O)oc2cc1O [Daphnoretin] | 1.11 |
| CC(C)(C(=O)O)c1ccc(C(O)CCCN2CCC(C(O)(c3ccccc3)c3ccccc3)CC2)cc1 (stereo not given) [Fexofenadine hydrochloride] | 1.02 |
| O=c1cc(N2CCOCC2)oc2c(-c3cccc4c3sc3ccccc34)cccc12 | 0.898 |
| COc1ccc([C@@H]2CC(=O)c3c(O)cc(O[C@@H]4O[C@H](CO[C@@H]5O[C@@H](C)[C@H](O)[C@@H](O)[C@H]5O)[C@@H](O)[C@H](O)[C@H]4O)cc3O2)cc1O [Hesperidin] | 1.15 |
| Cc1cc2cc(Oc3ccnc(Nc4cccc(CS(=O)(=O)NCCN(C)C)c4)n3)ccc2[nH]1 [Sulfatinib] | 1.07 |

| SMILES | cell viability |
| --- | --- |
| COc1cccc(-c2cc(NCc3ccc4c(c3)OCO4)nc(N)n2)c1 [Wnt agonist 1] | 0.701 |
| Cc1ccc(-c2ccc(F)cc2COc2ccc(CCC(=O)O)cc2)cc1 | 1.01 |
| COCc1c(-c2ccc(NC(=O)Nc3cc(C(F)(F)F)ccc3F)c(F)c2)c2c(N)ncnn2c1CN1CCOCC1 | 0.632 |
| CO/N=C(\C(=O)N[C@@H]1C(=O)N2C(C(=O)OCOC(=O)C(C)(C)C)=C(/C=C\c3scnc3C)CS[C@H]12)c1csc(N)n1 [Cefditoren pivoxil] | 0.916 |
| CCC(=O)N1CCN(c2ccc(-n3c(=O)ccc4cnc5ccc(-c6cnc7ccccc7c6)cc5c43)cc2C(F)(F)F)CC1 [Torin 1] | 0.437 |
| c1ccc2c(Cc3c[nH]c4ccccc34)c[nH]c2c1 [3,3'-Diindolylmethane] | 0.938 |
| C=C1C(=O)O[C@@H]2/C=C(\C)CC/C=C(\C)CC[C@@H]12 [Costunolide] | 0.964 |
| O=C(Nc1ccccc1)c1cc([N+](=O)[O-])ccc1Cl | 0.995 |
| Oc1ccc2c(c1)OCO2 [Sesamol] | 1.02 |
| Cc1onc(-c2ccccc2)c1-c1ccc(S(N)(=O)=O)cc1 [Valdecoxib] | 1.03 |
| O=C(O)[C@H]1O[C@@H](Oc2cc3oc(-c4ccc(O)cc4)cc(=O)c3c(O)c2O)[C@H](O)[C@@H](O)[C@@H]1O [Scutellarin] | 0.977 |
| C[C@]12CCC(=O)C=C1CC[C@@H]1[C@@H]2[C@@H](O)C[C@@]2(C)[C@H]1CC[C@]2(O)C(=O)CO [Hydrocortisone] | 0.634 |
| O[C@@H]1[C@@H](O)[C@@H](OC/C=C/c2ccccc2)O[C@H](CO[C@@H]2OC[C@H](O)[C@H](O)[C@H]2O)[C@H]1O [Rosavin] | 0.944 |
| N[C@@H](CSCCB(O)O)C(=O)O | 0.835 |
| CNCCCC1c2ccccc2C=Cc2ccccc21 [Protriptyline hydrochloride] | 0.951 |
| COc1cc(-c2cn(C)c(=O)c3cnccc23)cc(OC)c1CN(C)C | 0.851 |
| O=[N+]([O-])c1ccc(-c2nc(-c3ccc(F)cc3)c(-c3ccncc3)[nH]2)cc1 | 0.866 |
| CC1(C)CC[C@]2(C(=O)O)CCC3=C([C@@H](CCl)C[C@@H]4[C@@]5(C)C[C@H](O)[C@H](O)[C@@](C)(C(=O)O)[C@@H]5CC[C@@]34C)[C@@H]2C1 [Senegenin] | 0.889 |
| CC(CN1c2ccccc2S(=O)(=O)c2ccccc21)N(C)C (stereo not given) [Dioxopromethazine hydrochloride] | 0.927 |
| COc1ccccc1C(=O)Nc1cc2c(cc1N1CCCC1)n(C)c(=O)n2C | 1.1 |
| Cc1cc(C(=O)NOCCO)c(Nc2ccc(I)cc2F)n(C)c1=O | 0.693 |
| COc1cc(-c2cn(C)c(=O)c3cnccc23)c(OC)cc1CN(C)C | 1.05 |
| CC1(C)S[C@@H]2[C@H](NC(=O)[C@H](N)c3ccc(O)cc3)C(=O)N2[C@H]1C(=O)O [Amoxicillin trihydrate] | 0.885 |
| CCC(=O)O[C@@H](O[P@](=O)(CCCCc1ccccc1)CC(=O)N1C[C@H](C2CCCCC2)C[C@H]1C(=O)O)C(C)C [Fosinopril sodium] | 0.815 |

| SMILES | cell viability |
| --- | --- |
| COc1cccc2c1C(=O)c1c(O)c3c(c(O)c1C2=O)C[C@@](O)(C(=O)CO)C[C@@H]3O[C@H]1C[C@H](N)[C@H](O)[C@H](C)O1 [Doxorubicin hydrochloride] | 0.741 |
| OCCOCCN1CCN(C2=Nc3ccccc3Sc3ccccc32)CC1 [Quetiapine Fumarate] | 0.94 |
| Cc1nc(Nc2cnn(C3CCNCC3)c2)nc2c1N(C)C(=O)c1cc3ccccc3cc1N2C | 1.01 |
| C=C1CCC[C@]2(C)C=C3OC(=O)C(C)=C3C[C@@H]12 [Atractylenolide I] | 1.07 |
| O=C(C=Cc1ccccc1)NC(NC(=S)Nc1ccc(Cl)cc1)C(Cl)(Cl)Cl (stereo not given) | 0.938 |
| CCCCCCCCC[C@H](O)CC(=O)CCc1ccc(O)c(OC)c1 [10-Gingerol] | 1.05 |
| Cc1cccc(C(=O)O)c1O [Hydroxytoluic acid] | 1.07 |
| CC(C)(CNC(=O)c1cccc(-c2noc(C(F)(F)F)n2)c1)c1coc(-c2ccccc2)n1 | 1.05 |
| Nc1nc(Cl)nc2c1ncn2[C@H]1C[C@H](O)[C@@H](CO)O1 [Cladribine] | 0.493 |
| O=C([C@@H](Cc1cccc(C(F)(F)F)c1)NS(=O)(=O)c1cc(F)c2c(c1)CCNC2)N1CCCC1 [(R)-PFI-2 hydrochloride] | 0.974 |
| CN1CCc2c(c3ccccc3n2Cc2ccccc2)C1 [Mebhydrolin napadisylate] | 1.06 |
| Oc1ccc([C@H]2COc3cc(O)ccc3C2)cc1 [Equol] | 1.05 |
| O=c1cc(-c2cccc3c2Sc2ccccc2S3)oc(N2CCOCC2)c1 | 0.858 |
| Cc1[nH]c2ccccc2c1CCNC(=O)c1cccs1 | 0.919 |
| N=C(N)c1ccc(OCCCCCOc2ccc(C(=N)N)cc2)cc1 [Pentamidine isethionate] | 1 |
| O=C(OC[C@H]1O[C@@H](OC(=O)c2cc(O)c(O)c(OC(=O)c3cc(O)c(O)c(O)c3)c2)[C@H](OC(=O)c2cc(O)c(O)c(OC(=O)c3cc(O)c(O)c(O)c3)c2)[C@@H](OC(=O)c2cc(O)c(O)c(OC(=O)c3cc(O)c(O)c(O)c3)c2)[C@@H]1OC(=O)c1cc(O)c(O)c(OC(=O)c2cc(O)c(O)c(O)c2)c1)c1cc(O)c(O)c(OC(=O)c2cc(O)c(O)c(O)c2)c1 [Tannic acid] | 0.857 |
| CC(C)n1cnc2c(NCc3ccccc3)nc(NCCCO)nc21 [Bohemine] | 0.951 |
| N#Cc1c(O)c2c(-c3ccc(-c4ccccc4O)cc3)csc2[nH]c1=O | 0.954 |
| CCCCC(=O)O[C@H]1CC[C@H]2[C@@H]3CCc4cc(O)ccc4[C@H]3CC[C@]12C [Estradiol valerate] | 1.15 |
| Cc1nc2ccc(-n3ncc(C(=O)c4cc5ccccc5[nH]4)c3N)cc2[nH]1 | 0.828 |
| CC(=O)O[C@@]12CO[C@@H]1C[C@H](O)[C@@]1(C)C(=O)[C@H](O)C3=C(C)[C@@H](OC(=O)[C@H](O)[C@@H](NC(=O)OC(C)(C)C)c4ccccc4)C[C@@](O)([C@@H](OC(=O)c4ccccc4)[C@H]21)C3(C)C [Docetaxel] | 0.508 |
| CC(=O)O[C@@]12CO[C@@H]1C[C@H](O)[C@@]1(C)C(=O)[C@H](O)C3=C(C)[C@@H](OC(=O)[C@H](O)[C@@H](NC(=O)OC(C)(C)C)c4ccccc4)C[C@@](O)([C@@H](OC(=O)c4ccccc4)[C@H]21)C3(C)C [Docetaxel trihydrate] | 0.462 |
